Data on 30 compounds can be found in PubChem BioAssay AID1347073 (National Center for Advancing Translational Sciences (NCATS), 2019).

About 200 (0.44%) of roughly 45,000 compounds were called active. Another 7% or so got no clear call; they are omitted. Calls follow the shape of the dose curve; as a rule, active = well fitted activation curve with a large enough effect; inconclusive = small, poorly fitted or top-dose-only effect; inactive = no such curve, though single readings can be large or run the other way. This is one part of the list.

The experiment can be described thus: qHTS of TDP-43 Inhibitors: NCGC Sytravon Library Screen. Also: 0% is about no effect; nearly all actives have a fitted effect of over 55% in size. Conditions: yeast TDP-43 toxicity rescue, BacTiter-Glo growth, 24 h; series mostly up to 46.1 µM; growth rescue (activation): at the top concentration. In short, it runs like this: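 TDP-43-expressing yeast, pregrown in raffinose, seeded at OD600 0.02 in galactose medium with compound for 24 hr at 30 deg C. Growth read by BacTiter-Glo luminescence, so rescue of toxicity appears as activation.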
A general note: In qHTS, concentration-response curves come from the screen itself.
In the case of `Cc1ccccc1C(=O)Nc1nnc(-c2ccco2)s1`, the “growth rescue (activation)” value is inactive: 7.24%. The value for `CCc1cccc(NC(=O)C2CCN(S(=O)(=O)c3c(C)noc3C)CC2)c1` was inactive: 9.01%.

As to `O=C(NC1CCCC1)c1cc(-c2ccc(F)cc2)on1`, the “growth rescue (activation)” value is inactive: 30.4%. Turning to `CSc1ccc(C(O)c2ncc(-c3cccc(F)c3)[nH]2)cc1` (stereo not given), the “growth rescue (activation)” value was inactive: 7.99%. Then `CC(C)C(C)NC(=O)CN1C(=O)NC(c2ccccc2)(c2ccccc2)C1=O` (stereo not given), with inactive: 6.91%; and `O=C(Nc1ccc(Cl)c(Cl)c1)Nc1cc(S(=O)(=O)N2CCOCC2)ccc1N1CCCC1`, with inactive: -21.1%; and `CCOC(=O)N/N=C(/C)c1ccc(N2C(=O)C3CCCCC3C2=O)cc1` (stereo not given), with inactive: 10.3%.

Regarding `O=C(CNC1CCCCCC1)c1cccs1`, the “growth rescue (activation)” value was inactive: 1.94%. The value for `CCOC(CNC(=O)Cn1nc(Cc2ccncc2)c2ccccc2c1=O)OCC` was inactive: 3.63%; that for `O=C1CC(=O)N(c2cccc(F)c2)N1` was inactive: -17.3%; that for `CC(=O)N1CCN(c2ccc(NC(=O)c3cccc(Cl)c3)cc2)CC1` was inactive: -3.93%. Then `COc1c(C)cc(C(=O)C2CCCN(C(=O)/C=C/c3ccccn3)C2)cc1C` (stereo not given), with inactive: 12.1%.

Turning to `CCN1CCN(C(=O)C2CCCN(S(=O)(=O)c3cc(Cl)ccc3Cl)C2)CC1` (stereo not given), the “growth rescue (activation)” value was inactive: 0.019%. Then `CCC(C)NC(=O)C(NS(=O)(=O)c1cccc2nsnc12)c1ccccc1` (stereo not given), with inactive: 14.5%; and `CN1CCN(C2CCN(S(=O)(=O)c3ccc(C(C)(C)C)cc3)CC2)CC1`, with inactive: 12.2%. For `O=C(COC(=O)/C=C/c1ccccc1[N+](=O)[O-])NCC(F)(F)F`, the “growth rescue (activation)” value was inactive: -3.52%. The value for `COc1ccc(Nc2ccc(OC)cc2)cc1` was inactive: 10.8%. With `CCOC(=O)c1cc2c(ccn2C)n1Cc1ccc(Cl)cc1`, the “growth rescue (activation)” value was inactive: 9.49%.

As to `CCC(C)Oc1ccc(/C=C/c2[nH]c(=O)[nH]c(=O)c2[N+](=O)[O-])cc1OC` (stereo not given), the “growth rescue (activation)” value was inactive: -15%.

As for `COc1ccc(CC(=O)Nc2ccc(S(=O)(=O)Nc3nccs3)cc2)cc1`, the “growth rescue (activation)” value was inactive: 3.66%. `Cc1nc2nc(C)c(NS(=O)(=O)c3ccc(CC(C)C)cc3)c(=O)n2[nH]1`: the “growth rescue (activation)” value is inactive: -11%.

With `Cc1cccc(/C=N/N(CCO)C2=NS(=O)(=O)c3ccccc32)c1`, the “growth rescue (activation)” value was inactive: 0.674%. The value for `CC(C)c1ccc(/C=N/NC(=O)C(=O)NCCCN2CCOCC2)cc1` was inactive: -7.92%; that for `Cc1ccc(NC(=O)CN2CCc3ccccc3C2)cc1F` was inactive: -31.9%; that for `COc1ccccc1CC(NC(C)=O)C(=O)NC1CCN(C(=O)Nc2ccccc2Cl)CC1` (stereo not given) was inactive: -5.2%. Consider `Nc1ccccc1N=Cc1ccc(-c2cccc(Cl)c2)o1`, for which the “growth rescue (activation)” value is inactive: 15.9%.

For the compound `NC(=O)C1CCN(C2OC(=O)c3ccccc32)CC1` (stereo not given), the “growth rescue (activation)” value is inactive: 13.2%.

On to `CC1(Cc2ccc(Cl)cc2)C(=O)Nc2c(Cl)ccc(Cl)c21` (stereo not given), for which the “growth rescue (activation)” value was inactive: -11.9%. The value for `CN1C(=O)c2ccccc2C(C(=O)O)C1c1cccc([N+](=O)[O-])c1` (stereo not given) was inactive: 10.4%; that for `O=C(Nc1ccc2c(c1)OCO2)c1cc(-c2cccnc2)nc2ccccc12` was inactive: 6.48%.
